Results on 34 variants are retold here after the RNAGym collection of RNA variant scans (doi:10.1093/nar/gkz1192).

B1: CPEB3 Ribozyme (parent)
chain: UAACAGGGGGCCACAGCAGAAGCGUUCACGUCGCAGCCCCUGUCAGAUUCUGGUGAAUCUGCGAAUUCUGCUGUAUAUCUC

The source gives no read counts; variants with many changes may rest on few reads.

Variants of B1 are the subject of this data set. As to the kind of experiment: self-cleavage, relative activity (ratio to wild type); higher = more cleavage; in vitro, sequencing. The method in brief: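 Relative activity was defined as the cleaved/total read fraction for a variant divided by the same fraction for the unmutated ribozyme. CPEB3 self-cleaving ribozyme libraries were made by rounds of error-prone PCR, barcoded, and transcribed in vitro with T7 RNA polymerase for 5 hours at 37°C, and cleavage ran through transcription plus a 15 min DNase I step before EDTA. Illumina sequencing of template-switched reverse transcripts gave the reads, and DNA sequencing mapped the barcodes. Averages come from three batches, using variants with at least 5 reads.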
As for UAACAGGGGGCCACAGCAGAAGCGCUCACGUCGCAGCCCUUGUCAGAUUCUGGGGGAUCUGCGAAUUCUGCUGUAUAUCUC, the self-cleavage was determined as 0.09.
Consider UAACAGGGGGCCACAGCAGAAGCGCUCACAUCGCAGCCCCUGUCAGAUUCCGGUGAAUCUGCGAAUUCUGCUGAAUCUCUC, for which the self-cleavage worked out at 0.43.
UAACAGGGGGCCACAGCAGAAGCGCUCACCUCGCAGACACUGUCAGACUCUGGUGAAUCUGCGAAUUCUGCUGCAUAUCUC: the self-cleavage stood at 0.08.
Consider UAACAGGGGGCCACAGCAGAAGCGCUCACGUCGCAGCCCCUGUCAGAUUCUAGUGAAUCUGCUAAUUCUGCUGUAUAUCUC, for which the self-cleavage was found to be 0.22.
The value for UAACAGGGGGCCACAGCAGAAGCGCUCACAUCGCAGCCCCUGUCAGAUUCUGGUGAAUCCGCGAAUUCUGCUGUAUAUCUC was 0.4.
The value for UAACAGGGGGCCACAGCAGAAGCGCUCACGUCCCAGCCCCUGUCAGAUUCUGGUGAAUCUGCGAAUUCUGCAGUAUAUCUC was 0.1.
The value for UAACAGGGGGCCACAGCAGAAGCGCUCACGUCGCAGCCCCUUUCAGAUCCUGGUGAAUCUGCGAAUUCUGCUGUAUAUCUC was 0.43; that for UAACAGGGGGCCACAGCAGAAGCGCACACGUCGCAGCCCCCGUCAGGUACUGGUGAAUCUGUGAAUUCUGCUGUAUAUCCC was 0.07.
UAACAGGGGGCCACAGCAGAAGCGCACACGUCGCGGCCCCUGUCAGAUUCUGGUGAAUCUGCGAAUUCUGCUGUAUAUCUC: the self-cleavage is 0.61.
The value for UAACAGGGGGCCACAGCAGAAGCGCUCACGUCGCACCCCCAGUCAGAUUCUGGUGAAUCUGCGAAUUCUGCUGUAUAUCUC was 0.4; that for UAACAGGGGGCCACAGCAGAAGCGCUCACGUCACGGCCCCAGUCAGAUUCUGGUGAAUCUGCGAAUUCUGCUGUAUAUCUC was 0.26.
The value for UAACAGGGGGCCACAGCAGAAGCGCUCACGUCUCAGCCCCCGUCAGAUUCUGGUGAAUCUGCGAAUUCUGCUGUAUAUCUC was 0.2.
On to UAACAGGGGGCCACAGCAGAAGCGCCCUCGUCGCAGCCCCUGUCAGAUUCUGGUGAAUCUGCGAAUUCUGCUGUAUAUCUC, for which the self-cleavage worked out at 0.19.
In the case of UAACAGGGGGCCACAGCAGAAGCGCUCACGUCGCAGCCCCUGUCAGAUUUUGGUGAAUCUGCGAAUUCCGCUGUAUACCUC, the self-cleavage stood at 0.35.
Turning to UAACAGGGGGCCACAGCAGAAGCGCUCACGUCACGGCCCCUGUCGGAUCCUGGUGAAUCUGCGAAUUCUGCUGUAUAUCUC, the self-cleavage is 0.05.
Regarding UAACAGGGGGCCACAGCAGAAGCGCACACGUCGCAGCCCCUGGCGGAUUCUGGCGAAUCUGCGAAUCCUGCUGCAUAUCUC, the self-cleavage turned out to be 0.11.
As to UAACAGGGGGCCACAGCAGAAGCGCUCACGUCACAGCCCCUGUCAGAUUCUGGUGAAUCUGCGAAUCCUGCUGUAUAUCUC, the self-cleavage came to 0.17.
On to UAACAGGGGGCCACAGCAGAAGCGCUCACGUCGCAACCCCAGUCCGAUUCUGGUGGAUCUGCGAAUUCUGCUGUUUAUCUC, for which the self-cleavage was 0.05.
With UAACAGGGGGCCACAGCAGAAGCGCUCACGUCGCAGCCCCUGUCAGAUUCUGGUGAAUCUGCUAAUUCUGCAGUAUUUCCC, the self-cleavage worked out at 0.06.
For the variant UAACAGGGGGCCACAGCAGAAGCGCACACGUCGCAGCCCCUGUCGGAUUCUGGUGAGUCCGCGAAGUCUGCUGUAUAUUUC, the self-cleavage came to 0.06.
Consider UAACAGGGGGCCACAGCAGAAGCGCACACGUCGCAGCCCCUGUCCGAUUCCGGUGAAUCUGCGAAUUCCGCCGUAUAUCUC, for which the self-cleavage stood at 0.19.
The value for UAACAGGGGGCCACAGCAGAAGCGCUCACGUCGCAGCCCCUGUCAGAUUCUGGUUAGUCUGCGGAUUCCGUUGUAUAUCUC was 0.15; that for UAACAGGGGGCCACAGCAGAAGCGCACACGUCGCAGCCCCUGUCAGAUUCUGGUGAGUCUGCGAAUUCUGAUGUAUAUCUC was 0.24.
UAACAGGGGGCCACAGCAGAAGCGCUCACGUCGCAGCCCCUGUCAGAUUCUGGUGAAUCUACGUAUCCUGCUGUAUUUCUC: the self-cleavage was found to be 0.05.
Regarding UAACAGGGGGCCACAGCAGAAGCGCUCACGUCGCAGCCCCUGUGAGACUCUGGUGAAUCUGCGAAUUCUGCCGUUUCUCUC, the self-cleavage was 0.19.
With UAACAGGGGGCCACAGCAGAAGCGCUCACGUCGCAGCCCCUGUCAGAUUUUGGUGAAUCUGCGAAUUCUGCUGUAUACCUC, the self-cleavage was 0.21.
On to UAACAGGGGGCCACAGCAGAAGCGCACUCGUCGCAGCCCCUGUCAGAUUCUGGUGAACCUGCGAGCUCUGCUGUAUAUCUC, for which the self-cleavage came out at 0.1.
UAACAGGGGGCCACAGCAGAAGCGCUCACGUCGCAGCCCCUGUCAGAUUCUGGUUAAUCUGCGAAUUCUGCUAUAUAUCUC: the self-cleavage amounted to 0.4.
The value for UAACAGGGGGCCACAGCAGAAGCGCUCACGUCCCGGCCCCUGUCAGAUCCUGGUGAAUCCGCGAAUUCCGCUGUAUAUCUC was 0.13; that for UAACAGGGGGCCACAGCAGAAGCGCUCACGUCGCAGCCCCUGUCAGAUUCUGGUGAAUCUGCAAAUUCUGCUGUAUAACUC was 0.22.
Take UAACAGGGGGCCACAGCAGAAGCGCUCACGUCGCAGCCCCUGUCAGAUUCUGGUGAAUCUCCGAAUUCUGCAGUACAUCUC: the self-cleavage was 0.18.
The value for UAACAGGGGGCCACAGCAGAAGCGCUCACGUCACAGCCCCUGUCGGAUUCUGGUGACUCUGCGAUUUCUGCAGUAUAUCCC was 0.07.
The value for UAACAGGGGGCCACAGCAGAAGCGCUCACGUCGCAGCCCCUGUCAGAUUCUCGUGAAUCUGCGAAUUCUGCUGUAUGUCUC was 0.21; that for UAACAGGGGGCCACAGCAGAAGCGCACACGUCGCAGCCCCUGUCAGAUUCUGAUGAAUCUGCGAAUUCUGCUGUAUAUCUC was 0.14.
